In PubChem BioAssay AID686979 (National Center for Advancing Translational Sciences (NCATS), 2013):
Several values for one entry are separate records, joined by “and”; a condition that tells them apart may be missing. Equal entries are not always repeated. Screen size: about 420,000 compounds; about 50,000 (12%) were called active. The shares of active, inactive and inconclusive entries below differ from those in the screen. Calls follow the shape of the dose curve; as a rule, active = well fitted inhibition curve with a large enough effect; inconclusive = small, poorly fitted or top-dose-only effect; inactive = flat fitted curve, though single readings scatter. Potencies of inconclusive entries are doubtful fits and often do not repeat.

Assay: qHTS for Inhibitors of human tyrosyl-DNA phosphodiesterase 1 (TDP1): qHTS in cells in presence of CPT; also: nearly all actives have a fitted effect of over 55% in size
Details: chicken DT40 Tdp1-/-;hTDP1 cells + 20 nM CPT, ATP luminescence, 48 h; series mostly up to 46.2 µM
Procedure, shortened: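 Chicken DT40 Tdp1-/- cells stably complemented with human TDP1 were seeded at 400 cells/well in medium containing 20 nM camptothecin, exposed to pin-transferred compounds, and grown at 37 °C for at least 48 hr. Viability was read as ATP luminescence.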
Potency is read from the fitted curve at half-maximal effect; tags tell the direction and shape of the fitted curve.

Compound | Potency
O=C(C[n+]1cccc(Br)c1)c1ccc(-c2ccccc2)cc1 | inactive and inconclusive: 29.1 µM [inhibitor, single point]
CCOC(=O)C(NC(=O)CC(C)C)(Nc1sc2c(c1C(N)=O)CCCC2)C(F)(F)F (stereo unspecified) | inactive
Cc1sc2ncnc(NCCN3CCOCC3)c2c1C | active: 13 µM
CC1(C)S/C(=N/N=C/c2cccs2)NC1=O | inactive
CC(=O)c1sc(Nc2nc3cc4c(cc3s2)OCO4)nc1C | inactive
CCCNC(=O)c1cc2cc([N+](=O)[O-])ccc2s1 | inactive
CN(C)S(=O)(=O)Oc1ccccc1C(=O)Nc1ccccc1Cl | inconclusive: 25.9 µM [inhibitor, single point]
CCOC(=O)c1ccc(OS(=O)(=O)c2ccccc2)c(OC)c1 | active: 20.6 µM
O=C(CCc1ccc(CCC(=O)c2cccs2)s1)c1cccs1 | inconclusive: 20.6 µM [inhibitor, single point]
Cc1sc2ncnc(N3CCN(CCOc4ccc(Cl)cc4)CC3)c2c1C | active: 2.51 µM
Cc1c(Cl)cccc1NC(=O)c1oc2ccc(S(=O)(=O)N3CCCCCC3)cc2c1C | inconclusive: 23.1 µM [inhibitor, single point]
N#CC1=C(N)Oc2cc(O)ccc2C1C1CCCCC1 (stereo unspecified) | inconclusive: 29.1 µM [inhibitor, single point]
CC(C)OC(=O)CN1CCN(C2c3ccccc3-c3ccccc32)CC1 | inconclusive: 25.9 µM [inhibitor, single point]
COc1ccc(NCc2nnc(-c3ccccc3)o2)cc1 | inactive
Cc1cccc(NC(=S)NN(Cc2ccccc2)c2ccccc2)c1C | active: 25.1 µM
O=C(Nc1cccc(F)c1)c1ccc2oc(=O)n(Cc3ccccc3)c2c1 | inconclusive: 18.4 µM [inhibitor, single point]
Cc1ncc(N=Nc2ccccc2Cl)c(-c2ccccc2)n1 | inconclusive: 23.1 µM [inhibitor, single point]
Nc1cc(Cl)ccc1N1CCOCC1 | inconclusive: 0.651 µM [inhibitor, full curve]
Cc1ccc(-c2cc(C(=O)NCc3ccco3)c3ccccc3n2)s1 | inconclusive: 20.6 µM [inhibitor, single point]
CC(C)C1C2=C(CC(C)(C)CC2=O)ON1c1ccccc1 (stereo unspecified) | active: 25.9 µM
CO[C@@H]1CN(C)C(=O)c2cc(NC(=O)Nc3cc(F)ccc3F)ccc2OC[C@H](C)N(C(=O)c2cnccn2)C[C@@H]1C | inconclusive: 16.4 µM [inhibitor, single point]
Cc1ccc(S(=O)(=O)N2CCCCC2)cc1NC(=O)COC(=O)C1CC1 | inactive
Nc1ncc(Br)cc1S(=O)(=O)NCCC(=O)NCc1ccc(F)cc1 | inactive

Compound | Potency
CN(C)c1ccc(/C=c2\[nH]c(=O)/c(=C/c3ccc(N(C)C)cc3)[nH]c2=O)cc1 | inactive
Cc1ccc2c(c1)CCCN2CC(=O)Nc1cc(S(=O)(=O)N2CCCC2)ccc1Cl | active: 20.6 µM
O=C(NCc1ccccc1)c1ccc2c(c1)N(Cc1ccccc1F)C(=O)c1ccccc1S2=O (stereo unspecified) | inconclusive: 23.1 µM [inhibitor, single point]
O=C(Cn1c(=O)n(-c2ccccc2)c(=O)c2c3c(sc21)CCC3)c1ccc(F)cc1 | inconclusive: 20.6 µM [inhibitor, single point]
Cc1c(Cl)cccc1-n1ncc(C(=O)NCCN2CCN(C)CC2)c1C1CCN(C(=O)OC(C)(C)C)CC1 | inconclusive: 23.1 µM [inhibitor, single point]
Cc1ccc(Sc2ccc(N3CCC(C(=O)Nc4cc(C)cc(C)c4)CC3)nn2)cc1 | inactive
CCCCNC(=O)C1(C)CCCCN1C(=O)c1ccc(OC)c(C(F)(F)F)c1 (stereo unspecified) | inconclusive: 18.4 µM [inhibitor, single point]
CSc1ccc(C2c3[nH]c4ccccc4c3CCN2C(=O)c2ccnn2C)cc1 (stereo unspecified) | inactive
COc1ccc(C(=O)CC(=O)c2ccc(C(C)(C)C)cc2)cc1 | inactive and inconclusive: 18.4 µM [inhibitor, single point]
COc1ccc(NC(=O)O/N=C/c2ccccc2)cc1 | inactive
C/C(=N\NC(=O)CSc1nc2ccccc2s1)c1cccnc1 | inconclusive: 29.1 µM [inhibitor, single point]
COc1cccc(CN(C(=O)COc2ccc(Cl)c(C)c2)C2CCS(=O)(=O)C2)c1 (stereo unspecified) | inconclusive: 25.9 µM [inhibitor, partial curve]
CC(C)(C)C(=O)Nc1nnc(SCC(=O)NC2CCCC2)s1 | inactive
OC(CSc1ccccc1Cl)CN1CCN(c2ccccc2F)CC1 (stereo unspecified) | inconclusive: 20 µM [inhibitor, single point]
COc1ccc(C(=O)NN/C=C/C(=O)c2ccc(Br)cc2)cc1 | active: 23.1 µM
O=C(Nc1ccc(Cl)cc1)c1cnn2c1NC(c1ccccc1)=CC2c1ccccc1 (stereo unspecified) | inconclusive: 23.1 µM [inhibitor, single point]
COc1cccc(C(=O)NNC(=O)c2ccc3ccccc3c2O)c1 | inconclusive: 29.1 µM [inhibitor, single point]
COc1nc(N2CCOCC2)nc(-n2cccc2)n1 | inconclusive: 23.1 µM [inhibitor, partial curve]
CCOc1ccccc1N(CC(=O)NCCSc1ccccn1)S(=O)(=O)c1ccccc1 | inconclusive: 29.1 µM [inhibitor, single point]
COc1ccccc1C(=O)NCCOc1ccc(C(C)(C)C)cc1 | inconclusive: 13 µM [inhibitor, partial curve, poor fit]
CC(=O)NC(c1ccc(F)c(F)c1)c1nc(-c2ccc(F)c(Cl)c2)cs1 (stereo unspecified) | inconclusive: 23.1 µM [inhibitor, single point]
Cc1ccc(C(=O)CCC(=O)Nc2ccccc2C)c(C)c1 | inactive
Cc1cccc(C2c3[nH]c4ccccc4c3CCN2C(=O)c2nn(C)c(=O)c3ccccc23)n1 (stereo unspecified) | inconclusive: 29.1 µM [inhibitor, single point]
